# In PubChem BioAssay AID488969 (Vanderbilt High Throughput Screening Facility, 2010):
# In all, about 110,000 compounds were measured (“z-score”: median about -0.1, highest 2% from about 2 on). The list shows a part of the results. Activity calls are given as the source filed them.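 The calls were made as follows: active = z-score in the third read window above 3 or below -3; inactive = the rest.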
# Biological target: Metabotropic glutamate receptor 8 (Rattus norvegicus) (UniProt P70579)
# Test: mGluR8 Gi/Go-coupled signaling modulation – cell-based, rat, thallium flux, HTS, primary screen (AID 488969)
# Conditions: HEK293 rat mGluR8, GIRK (G protein-gated inwardly rectifying potassium channel) thallium flux, FluoZin2; at 10 µM; stronger effect = higher value; submaximal glutamate (EC20) added with thallium
# Chain of UniProt P70579 (P70579 whole entry, looked up): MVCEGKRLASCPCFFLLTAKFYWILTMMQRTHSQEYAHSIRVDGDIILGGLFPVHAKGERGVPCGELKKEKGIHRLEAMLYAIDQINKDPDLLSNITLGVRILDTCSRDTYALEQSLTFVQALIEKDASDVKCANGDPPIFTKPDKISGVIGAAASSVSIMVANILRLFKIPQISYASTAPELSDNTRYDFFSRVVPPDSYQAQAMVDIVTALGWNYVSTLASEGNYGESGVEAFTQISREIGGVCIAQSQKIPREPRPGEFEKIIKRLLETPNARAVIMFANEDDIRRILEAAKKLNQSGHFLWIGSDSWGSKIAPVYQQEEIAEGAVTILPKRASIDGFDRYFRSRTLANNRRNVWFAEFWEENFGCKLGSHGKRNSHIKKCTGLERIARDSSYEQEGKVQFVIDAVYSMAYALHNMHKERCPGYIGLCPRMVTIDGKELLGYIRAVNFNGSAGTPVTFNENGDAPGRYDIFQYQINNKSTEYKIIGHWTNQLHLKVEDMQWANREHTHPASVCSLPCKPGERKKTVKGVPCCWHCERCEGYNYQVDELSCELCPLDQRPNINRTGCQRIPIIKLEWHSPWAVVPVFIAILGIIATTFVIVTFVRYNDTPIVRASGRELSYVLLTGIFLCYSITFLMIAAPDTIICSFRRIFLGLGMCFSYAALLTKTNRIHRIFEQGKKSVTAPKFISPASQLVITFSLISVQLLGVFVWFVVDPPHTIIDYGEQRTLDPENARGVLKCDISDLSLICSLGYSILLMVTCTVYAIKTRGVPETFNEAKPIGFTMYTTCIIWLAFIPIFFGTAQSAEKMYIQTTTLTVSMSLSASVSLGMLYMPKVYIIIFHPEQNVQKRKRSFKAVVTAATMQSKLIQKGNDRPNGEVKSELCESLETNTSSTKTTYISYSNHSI
row,Structure (SMILES),z-score
1,Cc1ccc2c(c1)c1ncn(CCC3=CCCCC3)c(=O)c1n2C,-0.0353
2,COc1cc(-c2nnc(SC(C)C(=O)Nc3c(C)n(C)n(-c4ccccc4)c3=O)o2)cc(OC)c1OC (stereo unspecified),-0.144
3,COc1cccc(N(C(=O)Cn2nnc(-c3cccs3)n2)C(C(=O)NC2CCCCC2)c2ccncc2)c1 (stereo unspecified),0.235
4,Cc1noc(C)c1CSCC(=O)N1CCN(c2ccc(F)cc2)CC1,0.94
5,Cc1cc(C)n2[nH]c(=O)c(N=Nc3cccc(Cl)c3)c2n1,0.381
6,O=c1[nH]c2ccc(NC(=S)Nc3ccccc3Cl)cc2[nH]1,-0.108
7,C=CCOc1ccc2ccccc2c1CNc1ncn[nH]1,-0.514
8,O=C(Cc1ccc(Cl)cc1)Nc1ccc(N2CCN(C(=O)c3ccco3)CC2)cc1,0.107
9,CCCOc1ccc(CN(CCO)CCO)cc1[N+](=O)[O-],-0.272
10,CCOC(=O)c1c(C)[nH]c(C(=O)CSc2nnc(-c3cccs3)n2Cc2ccccc2)c1C,-0.0745
11,C/C(=N\NC(=O)COc1ccc(C(C)(C)C)cc1)c1ccc(-n2ccnc2)cc1,0.123
12,COc1ccc(C2CC(c3cccs3)=Nc3ccccc3S2)cc1OC (stereo unspecified),0.0427
13,CCO/C(C)=N/n1c2nc3ccccc3nc2c2c(=O)n(CC(C)C)c(C)nc21,-0.194
14,O=C(Nc1ccc2oc(-c3ccc4ccccc4c3)nc2c1)c1cccs1,-0.186
15,O=C(N/N=C/c1ccc(-c2ccc(S(=O)(=O)Nc3ncccn3)cc2)o1)c1cc2ccccc2cc1O,-0.469
16,CC(C)c1ccc(NS(=O)(=O)c2cn(C)c(=O)n(C)c2=O)cc1,-0.372
17,CCOCc1nnc(NC(=O)CCc2ccccc2)s1,0.507
18,O=C(COc1ccc(Cl)cc1)N1CCCCC1,1.88
19,CCOc1ccc(C2C=C(c3ccccc3)Nc3nnnn32)cc1 (stereo unspecified),-0.108
20,c1ccc(-n2ncc3c(N4CCC5(CC4)OCCO5)ncnc32)cc1,0.0111
21,CC(C)NCCCOc1ccc(Cl)cc1Br,0.892
22,COC(=O)c1cc(CNC(=O)c2cccc(Cl)c2Cl)ccc1OC,-0.263
23,Cc1ccc(NC(=O)Cc2csc(-c3ccccc3)n2)cc1F,0.0327

row,Structure (SMILES),z-score
1,CCOc1ccc(C(C)NC(=O)Nc2ccccc2C(=O)OC)cc1 (stereo unspecified),-1.3
2,CC(C)c1onc(C(=O)NCc2ccc(Cl)cc2)c1[N+](=O)[O-],-0.0253
3,CCOC(=O)C1CCN(C(=O)CS(=O)Cc2nc(-c3ccc(C)cc3)oc2C)CC1 (stereo unspecified),0.334
4,Cc1ccc(-c2nnn(CC(=O)N(CC(=O)NC3CCCCC3)c3ccc(F)c(Cl)c3)n2)o1,0.293
5,CN=C1c2cc3c(Br)c(OC)ccc3n2CCN1C,0.218
6,Cc1ccc(N(CC(=O)N/N=C/c2cccs2)S(C)(=O)=O)cc1,0.245
7,Cc1sc2ncnc(OCC(=O)N3CCN(S(=O)(=O)c4ccccc4)CC3)c2c1C,0.459
8,CCOC(=O)c1sc2cc([N+](=O)[O-])cc(SCCO)c2c1N,-0.16
9,Cc1cc(/N=C/N(C)C)on1,-0.0351
10,Fc1ccc(NC(=S)N2N=CCC2c2ccccc2)cc1 (stereo unspecified),-0.117
11,O=C(COc1ccc(C(=O)c2ccccc2)cc1)NC1CCCCC1,-0.0497
12,COc1ccc(N2C(=O)/C(=C3/C=CC=CN3C)SC2=S)cc1,0.0179
13,CCc1ccc(Cn2nnc(C(=O)Nc3cccc(C)c3)c2N)cc1,0.514
14,CCCNC(=O)COc1ccccc1[N+](=O)[O-],-0.112
15,COc1ccc(C(=O)NCC(=O)OCC(=O)N2CC(C)CC(C)C2)cc1 (stereo unspecified),0.156
16,COc1ccc(/C=N/NS(=O)(=O)c2ccccc2)cc1OS(=O)(=O)c1ccccc1,-0.712
17,COc1ccc(-c2nnc(SCc3nnc(-c4cccs4)o3)n2CC2CCCO2)cc1 (stereo unspecified),-0.126
18,Cc1cc(C)c2cccc(NC(=S)NC(=O)c3ccccc3)c2n1,0.2
19,Cc1ccc(N2C(=O)C(Cl)=C(NCc3ccccc3)C2=O)c(C)c1,0.139
20,COc1ccc(/C=N/N=C2/NC(=O)C(CC(=O)O)S2)cc1OCc1ccc(Cl)cc1Cl (stereo unspecified),-0.123
21,Cc1ccc(-n2cccc2/C=C2/C(=N)N3C(=NC2=O)SN=C3S(C)(=O)=O)cc1Cl,0.702
22,O=C(NCc1ccc2c(c1)OCO2)c1ccc(CS(=O)(=O)Cc2cccc(Cl)c2)o1,-0.218
23,CCCCOC(=O)Nc1sc2nc(C)cc(C)c2c1-n1cccc1,-0.237

row,Structure (SMILES),z-score
1,CC1CC(C)CN(c2ccc([N+](=O)[O-])cc2-c2nn[nH]n2)C1 (stereo unspecified),-0.258
2,Cc1cc(C)cc(NC(=S)NCCCO)c1,-0.119
3,O=C(CSc1nnc(-c2ccccc2Cl)n1Cc1ccco1)Nc1ccc2c(c1)OCCO2,-0.435
4,CN(C)c1nc(Oc2ccc(=O)[nH]n2)nc(N2CCOCC2)n1,-0.115
5,CCOc1cccc(OCCCCn2ccnc2)c1,-0.196
6,Cc1ccc(CCNC(=O)C2CCCN(S(=O)(=O)c3cccs3)C2)cc1 (stereo unspecified),-0.0308
7,O=C(CNc1ccccc1)N/N=C/c1c[nH]c2ccccc12,0.178
8,Cc1ccccc1-n1c(=O)c2ccccc2n2nnnc12,0.0179
9,COC(=O)CC1(c2cccc3ccccc23)C(=O)c2ccccc2C1=O,-0.561
10,O=C(NCCCc1ccccc1)c1cccs1,-0.216
11,Cc1nn(S(=O)(=O)N(C)C)c(C)c1CN1C(=O)c2ccccc2C1=O,1.76
12,O=C1c2cccnc2C(O)N1Cc1ccc(F)cc1 (stereo unspecified),0.13
13,COc1cc(SC)ccc1C(=O)Nc1ccc2c(c1)CCN2S(C)(=O)=O,-0.318
14,Cc1ccc(S(=O)(=O)N2CCC(C(=O)N3CCC[C@H]3C(=O)NCc3ccccc3)CC2)cc1,-0.265
15,CCOc1ccc(NS(=O)(=O)c2ccc(OC)c(C)c2)cc1,0.961
16,COc1cc(OC)c(C(=O)Nc2ccc(N(C)C)cc2)cc1OC,-0.495
17,CC1(C)Cc2c(cnn2-c2ccccc2)-c2c1c1ccccc1n2CC(O)CCl (stereo unspecified),-0.108
18,CCn1c(COc2ccc(=O)n(-c3ccccc3)n2)nnc1SCc1ccccc1C,-0.428
19,CCC(Sc1nc2cc3c(cc2c(=O)n1Cc1ccco1)OCO3)C(=O)Nc1ccccc1OC (stereo unspecified),-1.31
20,CCc1ccc(C(=O)NCc2ccc(Cl)cc2Cl)cc1,-0.761
21,O=C(NC1CCCCC1)c1ccc(Cn2cc(Cl)cn2)cc1,0.136
22,O=C(Nc1ccc2c(c1)OCCO2)c1ccc(Cl)c([N+](=O)[O-])c1,-0.228
23,O=S(=O)(Nc1cccc2ccccc12)N1CCCC1,-0.224

row,Structure (SMILES),z-score
1,COc1ccccc1N1CCN(c2nc(N)c(C#N)c(CC#N)c2C#N)CC1,0.568
2,COc1ccc(CNc2nc3c(c(=O)[nH]c(=O)n3C)n2Cc2ccccc2C)cc1,-0.359
3,O=C(Nc1ccc2c(c1)CCC2)C1CCCN(c2ncccn2)C1 (stereo unspecified),1.78
4,CCOC(=O)C1=C(C)N=C2SC(C(=O)OC)=CC(=O)N2C1c1cc(OC)c(OC)c(OC)c1 (stereo unspecified),-0.014
5,Cc1nc2c(ccc3c2ccc2nc(C)sc23)s1,1.17
6,CN(C)c1ccc(/C=C/C(=O)c2ccc3c(c2)OCCO3)cc1[N+](=O)[O-],-0.26
7,Cc1cc(Cl)ccc1Oc1ncnc2oc(-c3ccccc3)cc12,0.0445
8,Cc1nnc(NC(=O)C2CCN(c3nnnn3-c3ccccc3)CC2)s1,-0.0201
9,Oc1ccc2ccccc2c1/C=N/c1nccs1,0.277
10,COc1ccc(C(=S)N2CCCC2)cc1OC,-0.422
11,O=C(CCCSc1nnnn1-c1ccccc1)c1ccc(F)cc1,-0.258
12,O=c1c2c3c(sc2nc2n1CCCCC2)CCCCC3,active: 8.38
13,C=CCN(CC=C)S(=O)(=O)c1ccc(NC(=S)NC(=O)Cc2ccc(OC)cc2)cc1,-0.106
14,COc1ccc(OC)c(S(=O)(=O)Nc2ccccc2SC)c1,1.19
15,Cc1cc(C)c2c(c1)NC(c1cc3c(cc1Br)OCO3)C1CC=CC21 (stereo unspecified),1.04
16,C=CCn1c(SCc2cc(=O)n3ccsc3n2)nnc1C1CCCCC1,-0.372
17,CC(CC(=O)NCc1cccnc1)c1ccccc1 (stereo unspecified),1.06
18,Cc1cc(C(F)F)n2ncc(C(=O)NCCc3ccccc3Cl)c2n1,-0.487
19,C/C(=N\OCC(=O)Nc1cc(C)cc(C)c1)c1ccc2c(c1)OCCO2,0.235
20,Cc1c(Cl)cccc1NC(=O)CNc1ccccc1F,-0.398
21,O=C(C(Sc1ccccc1)c1ccccc1)N1CCOCC1 (stereo unspecified),-0.0319
22,Cc1ccc2c(c1)-c1c(ssc1=S)C(C)(C)N2C(=O)CSC1=NCCS1,0.0366
23,Cn1c(=O)oc2cc(S(=O)(=O)N3CCC4(CC3)OCCO4)ccc21,0.716

row,Structure (SMILES),z-score
1,COc1ccc(C(=O)N2c3ccc(F)cc3CCC2C)cc1OC (stereo unspecified),-0.19
2,CCOC(=O)C1=C(C)N=C2SC(C(=O)OC)=CC(=O)N2C1c1ccc(F)cc1 (stereo unspecified),-0.218
3,CC(CSc1nc2ccccc2s1)Cn1c(N2CCCC2)nc2c1c(=O)[nH]c(=O)n2C (stereo unspecified),0.277
4,COC(=O)c1ccc(C)c(NC(=O)CN2C(=O)c3ccccc3S2(=O)=O)c1,-1.77
5,CCCn1c(NCc2cc(OC)ccc2OC)nc2ccccc21,0.137
6,COC(=O)c1ccccc1N(Cc1ccccc1)S(C)(=O)=O,-0.00256
7,O=C(COc1ccc2oc3c(c2c1)CCCC3)Nc1ccccn1,-0.0926
8,CCN(CC)S(=O)(=O)c1ccc2oc(C(=O)O)c(C)c2c1,-0.472
9,COc1ccc(C(C#N)N2CCCCC2)cc1OC (stereo unspecified),0.979
10,O=C1NC2(CCCCCC2)Cc2ccccc21,-0.131
11,COc1ccc(-c2ncccc2O)cc1,-0.124
12,COC(=O)c1ccc(Oc2nc(NC(C)C)nc(N(C)C)n2)cc1,0.0146
13,COc1ccc(Br)c(/C=N/NC(=O)COc2ccc(-c3ccccc3)cc2)c1,-0.607
14,COc1cccc(/C=C(/C#N)c2ccc(F)cc2)c1OCc1cccc(C(=O)O)c1,-0.924
15,Cc1ccc(NC(=O)c2cc(N(C)C)ccc2[P+](=O)O)cc1,-0.24
16,CNC(=O)COc1ccccc1C(=O)Nc1ccc2c(c1)oc1ccccc12,-0.0282
17,COc1ccc(-c2cn3c(C)c(C(=O)NCc4ccc5c(c4)OCO5)sc3n2)cc1,-0.267
18,Cn1c(=O)c2c(nc(Sc3n[nH]c(N)n3)n2Cc2ccccc2Cl)n(C)c1=O,-0.703
19,COc1ccc(C2(C(=O)Nc3c(C)n(C)n(-c4ccccc4)c3=O)CCCC2)cc1OC,0.225
